Results: PubChem BioAssay AID588342 (National Center for Advancing Translational Sciences (NCATS), 2011)
In all, about 360,000 compounds went through this assay and about 25,000 (6.9%) were called active. The shares of active, inactive and inconclusive entries below differ from those in the screen. Calls come from the whole dose curve; as a rule, active = well fitted inhibition curve with a large enough effect; inconclusive = small, poorly fitted or top-dose-only effect; inactive = flat fitted curve, though single readings scatter. Potencies beside an inconclusive call are fits to weak or partial responses and may not hold up.

Target: Luciferin 4-monooxygenase (Photinus pyralis) (UniProt P08659)
Assay: qHTS profiling assay for firefly luciferase inhibitor/activator using purifed enzyme and Km concentrations of substrates (counterscreen for miR-21 project); note: nearly all actives have a fitted effect of over 55% in size
Conditions: purified FLuc, luminescence inhibition; series mostly up to 57.5 µM
Outline: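 Purified P. pyralis luciferase (10nM final) with 10uM D-luciferin and 10uM ATP (Km levels) in 50mM Tris acetate pH 7.5, 10mM Mg acetate, 0.01% Tween-20, 0.05% BSA; qHTS 6-point titration, ~60 µM downward; luminescence read.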
Potency is the fitted concentration of half-maximal effect; tags give direction and shape of the fitted curve.

Sequence of UniProt P08659 (P08659 whole entry, looked up): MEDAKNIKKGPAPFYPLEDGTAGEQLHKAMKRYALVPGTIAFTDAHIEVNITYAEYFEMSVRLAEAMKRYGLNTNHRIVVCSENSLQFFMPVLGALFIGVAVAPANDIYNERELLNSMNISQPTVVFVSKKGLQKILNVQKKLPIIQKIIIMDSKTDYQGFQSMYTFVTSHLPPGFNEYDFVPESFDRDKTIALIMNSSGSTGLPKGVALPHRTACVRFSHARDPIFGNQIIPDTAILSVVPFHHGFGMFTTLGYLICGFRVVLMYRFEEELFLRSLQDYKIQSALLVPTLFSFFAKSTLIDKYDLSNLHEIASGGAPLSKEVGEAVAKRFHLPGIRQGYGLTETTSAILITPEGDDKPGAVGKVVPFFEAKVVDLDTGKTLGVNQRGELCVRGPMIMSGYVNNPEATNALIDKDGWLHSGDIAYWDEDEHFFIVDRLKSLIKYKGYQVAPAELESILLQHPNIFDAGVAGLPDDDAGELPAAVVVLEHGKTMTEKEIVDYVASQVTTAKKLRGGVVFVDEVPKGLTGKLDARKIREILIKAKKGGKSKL

Row | Compound | Potency
1 | O=C(Nc1ccccc1C(F)(F)F)c1c(F)cccc1Cl | inactive
2 | COc1ccc(/C(N)=C/C(=O)C(C)(C)C)cc1 | inconclusive: 16.9 µM [inhibitor, partial curve]
3 | Cc1ccc(-c2nc3ccc([N+](=O)[O-])cc3[nH]2)cc1 | active: 0.849 µM
4 | CCC(Sc1nc2cc(OC)c(OC)cc2c(=O)n1Cc1ccc(Cl)cc1)C(=O)NCCOC (stereo not drawn) | inactive
5 | O=C(O)c1cccc(NC(=S)NC(=O)c2cccc(OCc3ccccc3)c2)c1 | active: 19 µM
6 | O=S1(=O)c2ccccc2N(Cc2ccc(Cl)cc2F)c2ccccc21 | inconclusive: 8.49 µM [inhibitor, partial curve, poor fit]
7 | S=c1[nH]nc(COc2ccc(Cl)cc2)o1 | inconclusive: 23.9 µM [inhibitor, single point]
8 | CCOCCCNC(=O)c1ccc2c(c1)OCO2 | inconclusive: 30.1 µM [inhibitor, partial curve, poor fit]
9 | CC1=CC(=C(C#N)c2nc3ccccc3s2)C=C(C)N1CC1CCCO1 (stereo not drawn) | inconclusive: 7.57 µM [inhibitor, partial curve]
10 | Cc1ccc(CN=c2c([N+](=O)[O-])nn(-c3cccc(C)c3)n2O)cc1 | inconclusive: 26.9 µM [inhibitor, partial curve, poor fit]
11 | NC(=O)C1CCN(C2=C(NS(=O)(=O)c3ccc(Cl)cc3)C(=O)c3ccccc3C2=O)CC1 | inconclusive: 37.9 µM [inhibitor, partial curve, poor fit]
12 | O=C(COC(=O)c1cc[n+]([O-])cc1)Nc1ccc2c(c1)OCCO2 | inconclusive: 37.9 µM [inhibitor, partial curve, poor fit]
13 | Cc1cc(C(=O)CSc2n[nH]c(N)n2)c(C)n1-c1ccc2c(c1)OCO2 | inconclusive: 26.9 µM [inhibitor, single point]
14 | CCOc1ccccc1NC(=O)CSC1=Nc2ccccc2C2=NC(CC(=O)NC3CCCCC3)C(=O)N12 (stereo not drawn) | inactive
15 | Cc1cc(=O)[nH]c(/N=C(\N)Nc2ccc(SC(F)F)cc2)n1 | inactive
16 | O=C(Nc1ccccc1C(=O)NCCc1ccccc1)c1ccco1 | inconclusive: 26.9 µM [inhibitor, partial curve, poor fit]
17 | O=C(COC(=O)CCCN1C(=O)c2cccc3cccc(c23)C1=O)Nc1cccc(C(F)(F)F)c1 | inconclusive: 23.9 µM [inhibitor, single point]
18 | Oc1cccc2c(NC(=S)Nc3ccc(SC(F)F)cc3)cccc12 | inconclusive: 23.9 µM [inhibitor, single point]
19 | COc1ccc(/C=C2\SC(=S)N(CCC(=O)Nc3ccccc3C(=O)O)C2=O)cc1 | active: 21.3 µM
20 | CCCCCn1c(=O)[nH]c2cc(C(=O)N3CCN(c4ccc(C(C)=O)cc4)CC3)ccc2c1=O | inactive
21 | CC(=O)Nc1nonc1-c1nnc(SCC(=O)Nc2ccccc2Cl)n1C | inactive
22 | COC(=O)c1c(SCC(=O)Nc2cccc(C(F)(F)F)c2)[nH]c2ccccc2c1=O | inconclusive: 21.3 µM [inhibitor, single point]
23 | O=C(Nc1ncc(Cc2cccc(Cl)c2)s1)C1=NCCN1 | inactive
24 | COc1ccc(C(C#N)N2N=C(C)CC2(C)C)cc1OC (stereo not drawn) | inconclusive: 21.3 µM [inhibitor, partial curve]
25 | O=C(NC1CC1)c1ccc(CSCc2ccccc2Cl)o1 | inconclusive: 23.9 µM [inhibitor, partial curve, poor fit]

Row | Compound | Potency
26 | COc1ccc(NC(=O)c2ccco2)cc1NC(=O)c1cccnc1 | inconclusive: 21.3 µM [inhibitor, partial curve, poor fit]
27 | COc1ccc(Nc2nc(-c3ccccc3)c(C(=O)Nc3cccnc3)s2)cc1 | inconclusive: 26.9 µM [inhibitor, single point]
28 | CCN(C(=O)c1cc2c(s1)-c1c(C)cccc1OC2)c1cc(C)ccc1C | inactive
29 | CCOc1ccc2oc(=O)cc(CN3CCN(c4ccc(OC)cc4)CC3)c2c1 | inactive
30 | O=C(CCc1ccccc1)Nc1ccc(F)cc1F | inconclusive: 26.9 µM [inhibitor, single point]
31 | COc1ccc(C(C(=O)NC2CCCCC2)N(Cc2cccnc2)C(=O)c2snc(C(N)=O)c2N)cc1 (stereo not drawn) | inactive
32 | COc1ccc(Oc2c(C=O)c3ccccc3n2C)cc1 | inactive
33 | COc1ccc(COC(=O)N/N=C(\C)CC(=O)NCc2ccc(Cl)cc2)cc1 | inconclusive: 30.1 µM [inhibitor, partial curve, poor fit]
34 | Cn1nnnc1SCc1nnc(-c2ccccc2Br)o1 | inconclusive: 37.9 µM [inhibitor, single point]
35 | Cc1ccc(C(=O)Nc2ccc(-n3c(C)nc4ccccc4c3=O)cc2)cc1[N+](=O)[O-] | inactive
36 | COc1ccccc1N1CSC2=C(C#N)C(c3ccc(SC)cc3)CC(=O)N2C1 (stereo not drawn) | inconclusive: 23.9 µM [inhibitor, partial curve]
37 | Cc1ccc(/C=N/NC(=O)c2cccc(NC(=O)c3ccccc3C)c2)o1 | inconclusive: 19 µM [inhibitor, partial curve]
38 | COc1ccc(-c2cc(CS(=O)(=O)c3ccccc3)on2)cc1 | active: 10.7 µM
39 | Cc1nc(NC(=O)C23CC4CC(CC(C4)C2)C3)sc1Cc1ccc2c(c1)OCO2 | inconclusive: 21.3 µM [inhibitor, partial curve]
40 | c1ccc(Nc2nc(CSc3ncn[nH]3)cs2)cc1 | active: 15.1 µM
41 | CNC(=O)c1ccc(Nc2nnc(-c3ccc(C)c(S(=O)(=O)NC(C)(C)C)c3)c3ccccc23)cc1 | inactive
42 | Brc1ccc2c(c1)C(C1=NCCN1)c1ccccc1CS2 (stereo not drawn) | inactive
43 | O=c1c2c3c(sc2nc2n1CCCCC2)C(O)CCC3 (stereo not drawn) | inconclusive: 26.9 µM [inhibitor, single point]
44 | CC(C)C(NC(=O)c1ccccc1)C(=O)OCc1cc([N+](=O)[O-])cc2c1OCOC2 (stereo not drawn) | inconclusive: 30.1 µM [inhibitor, partial curve, poor fit]
45 | O=C(Nc1nccs1)c1ccc2nccnc2c1 | inconclusive: 23.9 µM [inhibitor, single point]
46 | COC(=O)c1c(NC(=O)C2CC2)sc(C(=O)Nc2ccccc2)c1C | inconclusive: 37.9 µM [inhibitor, single point]
47 | Cc1ccc(-n2[nH]c(C)c(C=Nc3ccc4[nH]c(=O)[nH]c4c3)c2=O)cc1 | inconclusive: 23.9 µM [inhibitor, partial curve, poor fit]
48 | COc1ccc(C2C3C(C)=NN=C3CC(C)(O)C2C(C)=O)cc1 (stereo not drawn) | inactive
49 | Oc1ccccc1C=Nc1ccccc1-c1nc2ccccc2[nH]1 | inconclusive: 4.78 µM [inhibitor, full curve]
50 | O=C(Nc1cccc(C(F)(F)F)c1)c1noc2c1CCc1ccccc1-2 | inconclusive: 8.49 µM [inhibitor, partial curve]

Row | Compound | Potency
51 | O=C(N/N=C/c1ccc(Cl)cc1Cl)c1cccc(N2CCCC2=O)c1 | active: 6.75 µM
52 | Cc1ccc(-n2ncc3c(SCC(=O)Nc4cc(C)on4)ncnc32)c(C)c1 | inactive
53 | O=C(NCCc1ccc(Cl)cc1)c1cccn1-c1nnc(N2CCCCC2)s1 | inactive
54 | COc1ccc([C@H]2CC(=O)C=C(c3cccc(Cl)c3)C2)cc1 | inactive
55 | Cc1cc(O)c(C(c2cccc(F)c2)N2CCC(C)CC2)c(=O)n1Cc1ccco1 (stereo not drawn) | inconclusive: 26.9 µM [inhibitor, partial curve, poor fit]
56 | O=C(NCC1CCCO1)c1ccc2nc(N3CCCCC3)sc2c1 (stereo not drawn) | active: 16.9 µM
57 | CN(c1ccc(C(=O)NCCSCc2ccco2)cc1)S(C)(=O)=O | inconclusive: 30.1 µM [inhibitor, partial curve, poor fit]
58 | Cc1cccc(NC(=O)CSc2nc3c(c(=O)[nH]2)CN(Cc2ccc4c(c2)OCO4)CC3)c1C | inactive
59 | CC(Cl)C(=O)c1ccc2c(c1)CCN2C(=O)C1CC1 (stereo not drawn) | inconclusive: 37.9 µM [inhibitor, partial curve, poor fit]
60 | COc1ccc(-c2csc3ncnc(N4CCN(c5ccc(OC)cc5)CC4)c23)cc1 | inactive
61 | CCS(=O)(=O)N1Cc2ccccc2CC1C(=O)Nc1ccc(C)cc1 (stereo not drawn) | inconclusive: 26.9 µM [inhibitor, single point]
62 | CC(Cc1cccs1)NC(=O)Nc1ccccc1 (stereo not drawn) | inconclusive: 19 µM [inhibitor, partial curve, poor fit]
63 | COc1ccccc1CNC(=O)c1cccn1-c1nnc(N2CCCC2)s1 | inactive
64 | CCCCOc1ccc(C(=O)Nc2ccc(S(=O)(=O)Nc3onc(C)c3C)cc2)cc1 | active: 16.9 µM
65 | CCN(CC(=O)Nc1cc(Cl)ccc1C)C(=O)c1ccc(N2CCCC2=O)cc1 | inactive
66 | NS(=O)(=O)c1ccc(NS(=O)(=O)c2ccc(NC(=S)Nc3ccccc3)cc2)cc1 | inactive
67 | O=C(OCC(=O)N1CCOCC1)c1cccc(S(=O)(=O)Nc2ccc(F)cc2)c1 | inconclusive: 23.9 µM [inhibitor, partial curve, poor fit]
68 | CCOc1ccc(N2CC(C(=O)Nc3ccc(S(=O)(=O)Nc4nccs4)cc3)CC2=O)cc1 (stereo not drawn) | inactive
69 | CN(C)c1ccc(/C=N/Nc2nc3ccccc3o2)cc1 | active: 0.536 µM
70 | CC(=O)c1nccs1 | inactive
71 | O=C(CSc1nnc(CN2CCCC2)n1-c1ccc(F)cc1)c1ccc2c(c1)OCO2 | inactive
72 | Cc1cnc(C(=O)Nc2ccc(F)c(F)c2)cn1 | inconclusive: 15.1 µM [inhibitor, partial curve, poor fit]
73 | COC(=O)CCn1c(C)cc(C(=O)COc2ccccc2C(N)=O)c1C | inconclusive: 26.9 µM [inhibitor, partial curve, poor fit]
